# The whole screen tested about 52,000 compounds, of which about 1,700 (3.3%) were called active. Rule as the data show it: active = survival mostly below about 52% (no sharp cut-off); inactive = mostly above about 56%. The list shows a part of the results.
# Tested on: Wild type
# Assay: S. aureus survival, RN4220 and DeltatarO strains – OD600, teichoic acid synthesis inhibitors, primary screen (AID 463173)
# Settings: S. aureus RN4220 wild type/DeltatarO growth, OD600, 18 h, stronger effect = lower value, screened at 18.75 µg/mL (by protocol)
row,SMILES,survival
1,Cc1nc(-c2ccc(S(=O)(=O)Nc3ccc(C#N)cc3)cc2)co1,inactive: 126%
2,COc1ccc(C(=O)Nc2nccs2)c(OC)c1,inactive: 118%
3,COc1cc(NS(=O)(=O)c2cnc(N)nc2)cc(OC)c1,inactive: 64%
4,CCOc1ccc(/C=C/C(=O)Nc2sc3c(c2C(=O)OC)C(C(=O)OC)CC3)cc1 (centres undefined),inactive: 75%
5,CCOC(=O)c1cc(C)n(CC2CCC(C(=O)Nc3ccc(C(C)=O)cc3)CC2)c1C (centres undefined),inactive: 75%
6,COc1cc(C(=O)OCc2cc(=O)n3nc(C4CCCCC4)sc3n2)cc(OC)c1OC,inactive: 131%
7,CCCNS(=O)(=O)c1ccc2nc(NC(=O)c3ccc(F)cc3)sc2c1,inactive: 78%
8,Cc1ccc2nc(N3CCN(c4ccccc4)CC3)c3nnnn3c2c1,inactive: 78%
9,O=C(NCCC1=CCCCC1)c1ccc2c(c1)N(Cc1ccccc1F)C(=O)c1ccccc1S2=O (centres undefined),inactive: 156%
10,CCn1nnc2cc(C(=O)Nc3ccc(Cl)cc3C)ccc21,inactive: 123%
11,CCc1cccc(-n2c(=O)c3cccnc3n2CC(=O)NCc2ccccc2)c1,inactive: 74%
12,COc1ccc(N2CCN(C(=O)c3cccc(-n4c(C)nc5cccnc54)c3)CC2)cc1,inactive: 74%
13,CCc1cccc(NC(=O)c2cn3c4c(ccc(Cl)c4c2=O)OC(C)C3)c1 (centres undefined),inactive: 73%
14,CC1CCCCN1C(=O)Cn1c(=O)n(-c2ccc(Cl)cc2)c(=O)c2c3c(sc21)CCC3 (centres undefined),inactive: 121%
15,COc1cccc(NC(=O)Cn2c(=O)cc(C)c3c(C)nn(-c4cccc(F)c4)c32)c1,inactive: 80%
16,COc1cccc(NC(=O)C2CCN(S(=O)(=O)c3cccc4nonc34)CC2)c1,inactive: 99%
17,OCCNCC(O)CN1c2ccccc2Sc2ccccc21 (centres undefined),inactive: 110%
18,CCN1CCN(C(c2ccc(OC)cc2)c2c(O)cc(C)n(Cc3ccco3)c2=O)CC1 (centres undefined),inactive: 71%
19,COc1ccc(CNC(=O)c2ccc(NC(=O)N3CC4CCCN4c4ccccc43)cc2)cc1 (centres undefined),inactive: 92%
20,CCN(CC)c1nc2c(-c3cccc(Br)c3)nnn2c2ccccc12,inactive: 69%
21,Cc1ccc(-n2ncc(C(=O)NCCc3ccccc3)c2C2CCN(C(=O)OC(C)(C)C)CC2)c(C)c1,inactive: 81%
22,O=c1[nH]c(=O)n(-c2ccccc2)c(O)c1C=Nc1ccc(S(=O)(=O)N2CCCCC2)cc1,inactive: 101%
23,O=C(CSc1ccccc1)Nc1ccc(NC(=O)c2ccco2)cc1,inactive: 105%
24,COCCCn1c(=N)c(C(=O)NCC2CCCO2)cc2c(=O)n3cc(C)ccc3nc21 (centres undefined),inactive: 71%

# Reference: PubChem BioAssay AID463173 (ICCB-Longwood Screening Facility, Harvard Medical School, 2010)
